According to PMC4336329 (PLoS ONE, 2015):
The whole screen tested about 310,000 compounds, of which about 14,000 (4.5%) showed an effect of 50% or more. The effect is printed as a negative number. Some of the results follow.

biological target: human ether-à-go-go-related gene (hERG) potassium channel (human, UniProt Q12809); assay: primary screen, population patch clamp on CHO cells stably expressing hERG
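Further: peak tail current of the secondary pulse compared with the same well before compound.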

Sequence of human ether-à-go-go-related gene (hERG) potassium channel (Q12809 whole entry, looked up): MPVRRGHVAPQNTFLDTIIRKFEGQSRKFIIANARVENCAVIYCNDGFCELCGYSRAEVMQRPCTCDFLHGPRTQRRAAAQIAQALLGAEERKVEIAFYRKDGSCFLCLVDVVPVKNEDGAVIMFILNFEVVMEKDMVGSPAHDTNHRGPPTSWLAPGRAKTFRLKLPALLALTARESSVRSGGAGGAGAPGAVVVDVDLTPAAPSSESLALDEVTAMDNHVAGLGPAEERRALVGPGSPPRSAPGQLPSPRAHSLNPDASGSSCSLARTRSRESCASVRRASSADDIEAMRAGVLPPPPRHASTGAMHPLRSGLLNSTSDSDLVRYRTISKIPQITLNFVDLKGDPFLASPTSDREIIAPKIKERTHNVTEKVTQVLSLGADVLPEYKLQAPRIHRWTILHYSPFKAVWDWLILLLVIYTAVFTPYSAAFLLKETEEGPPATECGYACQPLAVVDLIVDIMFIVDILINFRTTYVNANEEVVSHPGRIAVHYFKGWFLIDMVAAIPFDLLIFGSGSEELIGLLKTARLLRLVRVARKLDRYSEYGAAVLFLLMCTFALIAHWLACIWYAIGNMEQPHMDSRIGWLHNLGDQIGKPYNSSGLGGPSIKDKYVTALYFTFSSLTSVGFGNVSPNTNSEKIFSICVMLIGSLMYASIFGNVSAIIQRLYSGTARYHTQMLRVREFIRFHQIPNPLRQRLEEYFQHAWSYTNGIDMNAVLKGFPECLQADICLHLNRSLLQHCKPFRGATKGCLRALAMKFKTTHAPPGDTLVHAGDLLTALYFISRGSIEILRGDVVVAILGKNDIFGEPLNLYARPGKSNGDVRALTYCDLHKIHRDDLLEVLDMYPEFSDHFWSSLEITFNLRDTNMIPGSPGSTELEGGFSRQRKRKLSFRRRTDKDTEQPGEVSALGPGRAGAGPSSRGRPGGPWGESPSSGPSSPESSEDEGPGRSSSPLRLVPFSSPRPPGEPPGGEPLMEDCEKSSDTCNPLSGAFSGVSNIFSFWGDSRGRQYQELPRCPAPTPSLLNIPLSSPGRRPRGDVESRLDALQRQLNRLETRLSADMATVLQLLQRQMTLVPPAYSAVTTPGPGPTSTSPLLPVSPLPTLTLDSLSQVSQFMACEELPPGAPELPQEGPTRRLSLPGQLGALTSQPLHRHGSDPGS

Row | Structure (SMILES) | hERG current change (%, negative = inhibition) at 10uM
1 | Cc1ccc(-c2nn(CCC(=O)Nc3cccnc3)c(=O)c3ccccc23)cc1 | -48.8%
2 | Cc1cc2c(c(=O)n1Cc1cccnc1)C(Cc1ccccc1)C(C#N)=C(N)O2 (stereo not drawn) | -40.3%
3 | CCCC(=O)C1=C(O)C(C(=O)OC)C(C)(C)CC1=NCc1ccccc1 (stereo not drawn) | 0.836%
4 | COC(=O)CCN(C)CCC(=O)OC.Cl | 8.58%
5 | CS(=O)(=O)n1nc(NCc2cccs2)nc1NCc1cccs1 | -0.436%
6 | CCC(=O)NNc1cccc(Cl)n1 | -4.71%
7 | CCc1[nH]nc2c1C(Cc1ccccc1)C(C#N)=C(N)O2 (stereo not drawn) | -15.8%
8 | Cc1ccsc1/C=N/NC(=O)C1CC(=O)N(c2ccccc2)C1 (stereo not drawn) | -15.4%
9 | Cc1ccc(C(C)C)c(OCc2ccc(C(=O)N/N=C/c3cccc(O)c3O)cc2)c1 | 7.65%
10 | Cc1nc(-c2cccc(NC(=O)c3cccs3)c2)cs1 | -23.3%
11 | CN1CCN(c2ccc(-c3cccc(NC(=O)COc4ccc(Cl)cc4Cl)c3)nn2)CC1 | 6.83%
12 | CCCCCN1CN(S(=O)(=O)c2cccs2)c2nc3ccccc3nc21 | 0.435%
13 | CC(C)CS(=O)(=O)C1=NN2C(=N)/C(=C\c3ccc(OC(=O)c4ccco4)cc3)C(=O)N=C2S1 | 6.44%
14 | O=C(CC1SC(=NC2CCCCC2)NC1=O)Nc1ccccc1 (stereo not drawn) | 9.37%
15 | CCOC(=O)N1CCN(Cc2ccc(OCC(O)CN3CCCCC3)cc2)CC1 (stereo not drawn) | 15.7%
16 | CCOc1ccccc1NC(=S)NCc1cccn1C | 32.2%
17 | CC(=O)N1N=C(c2cccc(NS(=O)(=O)c3ccc(C)cc3)c2)CC1c1ccco1 (stereo not drawn) | 17%
18 | CCOc1ccc(NC(=O)N(C2CCCCCC2)C2CCN(C(C)=O)CC2)cc1 | -5.04%
19 | COc1ccc(NC(=O)CCS(=O)(=O)c2ccc3c(c2)CCN3C(C)=O)cc1 | 2.3%
20 | Cc1ccc(C)c(NS(=O)(=O)c2ccc(OCC(=O)N3CCCC3)cc2)c1 | -16.9%
21 | CCCC(=O)Nc1cccc(-c2cn3ccsc3n2)c1 | -47.5%
22 | Cc1ccc(NC(=O)CN(C)C(=O)c2ccc(Br)o2)cc1 | 17.5%
23 | CCn1cc(C(=O)NCCCN(CC(C)C)CC(C)C)c(=O)c2cc(S(=O)(=O)N(C)C3CCCCC3)ccc21 | -69.6%
24 | Cn1cnnc1SC1CCCCC1NS(=O)(=O)c1ccc(Cl)cc1 (stereo not drawn) | 10.2%
